# Test results as given in the supplement of paper PMC8728848.
# The list shows a part of the results.
# Tests used:
# Experiment in all cases: glycan array binding signal (z-score within array); higher = stronger binding
# Details in all cases: glycan notation: IUPAC condensed, linker removed
# [1] = biological target: Fuc(a1-3)GlcNAc
# Method in brief: (§1)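 Arrays were curated from the Consortium for Functional Glycomics database, 3228 in total, and kept only where the protein sequence was available. Binding is expressed as a within-array Z-score. This score was averaged across arrays of the same protein sequence at different concentrations or buffers and across linkers, and negative values can be read as non-binding.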
# [2] = biological target: Fuc(a1-3)[Gal(b1-4)]Glc6S
# Method in brief: as §1
# [3] = biological target: Fuc(a1-3)[Gal(b1-4)]GlcNAc
# Method in brief: as §1
# [4] = biological target: Fuc(a1-3)[Gal(b1-4)]GlcNAc(b1-2)Man
# Method in brief: as §1
# [5] = biological target: Fuc(a1-3)[Gal(b1-4)]GlcNAc(b1-2)Man(a1-3)[Fuc(a1-3)[Gal(b1-4)]GlcNAc(b1-2)Man(a1-6)]Man(b1-4)GlcNAc(b1-4)GlcNAc
# Method in brief: as §1
# [6] = biological target: Fuc(a1-3)[Gal(b1-4)]GlcNAc(b1-2)Man(a1-3)[Fuc(a1-3)[Gal(b1-4)]GlcNAc(b1-2)Man(a1-6)]Man(b1-4)GlcNAc(b1-4)[Fuc(a1-6)]GlcNAc
# Method in brief: as §1
# [7] = biological target: Fuc(a1-3)[Gal(b1-4)]GlcNAc(b1-3)Gal(b1-3)[Fuc(a1-4)]GlcNAc
# Method in brief: as §1
# [8] = biological target: Fuc(a1-3)[Gal(b1-4)]GlcNAc(b1-3)Gal(b1-4)[Fuc(a1-3)]GlcNAc
# Method in brief: as §1
# [9] = biological target: Fuc(a1-3)[Gal(b1-4)]GlcNAc(b1-3)Gal(b1-4)[Fuc(a1-3)]GlcNAc(b1-3)Gal(b1-4)[Fuc(a1-3)]GlcNAc
# Method in brief: as §1
# [10] = biological target: Fuc(a1-3)[Gal(b1-4)]GlcNAc(b1-3)GalNAc
# Method in brief: as §1
# [11] = biological target: Fuc(a1-3)[Gal(b1-4)]GlcNAc(b1-6)GalNAc
# Method in brief: as §1
# [12] = biological target: Fuc(a1-3)[Gal(b1-4)]GlcNAc(b1-6)[Gal(b1-3)GlcNAc(b1-3)]Gal(b1-4)Glc
# Method in brief: as §1
# [13] = biological target: Fuc(a1-3)[Gal(b1-4)]GlcNAc6S
# Method in brief: as §1
# [14] = biological target: Fuc(a1-3)[Gal3S(b1-4)]Glc
# Method in brief: as §1
# [15] = biological target: Fuc(a1-3)[Gal3S(b1-4)]GlcNAc
# Method in brief: as §1
# [16] = biological target: Fuc(a1-3)[Gal3S(b1-4)]GlcNAc6S
# Method in brief: as §1
# [17] = biological target: Fuc(a1-3)[GalNAc(b1-4)]GlcNAc
# Method in brief: as §1
# [18] = biological target: Fuc(a1-3)[GalNAc(b1-4)]GlcNAc6S
# Method in brief: as §1
# [19] = biological target: Fuc(a1-4)GlcNAc
# Method in brief: as §1
# [20] = biological target: Fuc(b1-3)GlcNAc
# Method in brief: as §1
# [21] = biological target: Gal(a1-2)Gal
# Method in brief: as §1
# [22] = biological target: Gal(a1-3)Gal
# Method in brief: as §1
# [23] = biological target: Gal(a1-3)Gal(b1-3)GlcNAc
# Method in brief: as §1
# [24] = biological target: Gal(a1-3)Gal(b1-3)GlcNAc(b1-2)Man
# Method in brief: as §1
# [25] = biological target: Gal(a1-3)Gal(b1-3)GlcNAc(b1-2)Man(a1-3)[Gal(a1-3)Gal(b1-3)GlcNAc(b1-2)Man(a1-6)]Man(b1-4)GlcNAc(b1-4)GlcNAc
# Method in brief: as §1
# [26] = biological target: Gal(a1-3)Gal(b1-3)GlcNAc(b1-3)GalNAc
# Method in brief: as §1
# [27] = biological target: Gal(a1-3)Gal(b1-3)GlcNAc(b1-6)GalNAc
# Method in brief: as §1
# [28] = biological target: Gal(a1-3)Gal(b1-3)[Fuc(a1-4)]GlcNAc(b1-2)Man(a1-3)[Gal(a1-3)Gal(b1-3)[Fuc(a1-4)]GlcNAc(b1-2)Man(a1-6)]Man(b1-4)GlcNAc(b1-4)GlcNAc
# Method in brief: as §1
# [29] = biological target: Gal(a1-3)Gal(b1-4)Glc
# Method in brief: as §1
# [30] = biological target: Gal(a1-3)Gal(b1-4)GlcNAc
# Method in brief: as §1
# [31] = biological target: Gal(a1-3)Gal(b1-4)GlcNAc(b1-2)Man
# Method in brief: as §1
# [32] = biological target: Gal(a1-3)Gal(b1-4)GlcNAc(b1-2)Man(a1-3)[Gal(a1-3)Gal(b1-4)GlcNAc(b1-2)Man(a1-6)]Man(b1-4)GlcNAc(b1-4)GlcNAc
# Method in brief: as §1
# [33] = biological target: Gal(a1-3)Gal(b1-4)GlcNAc(b1-3)GalNAc
# Method in brief: as §1
# [34] = biological target: Gal(a1-3)Gal(b1-4)GlcNAc(b1-6)GalNAc
# Method in brief: as §1
# [35] = biological target: Gal(a1-3)Gal(b1-4)[Fuc(a1-3)]GlcNAc
# Method in brief: as §1
# [36] = biological target: Gal(a1-3)Gal(b1-4)[Fuc(a1-3)]GlcNAc(b1-2)Man(a1-3)[Gal(a1-3)Gal(b1-4)[Fuc(a1-3)]GlcNAc(b1-2)Man(a1-6)]Man(b1-4)GlcNAc(b1-4)GlcNAc
# Method in brief: as §1
# [37] = biological target: Gal(a1-3)GalNAc
# Method in brief: as §1
# [38] = biological target: Gal(a1-3)[Gal(a1-4)]Gal(b1-4)GlcNAc
# Method in brief: as §1
# [39] = biological target: Gal(a1-4)Gal(b1-3)GlcNAc(b1-2)Man(a1-3)[Gal(a1-4)Gal(b1-3)GlcNAc(b1-2)Man(a1-6)]Man(b1-4)GlcNAc(b1-4)GlcNAc
# Method in brief: as §1
# [40] = biological target: Gal(a1-4)Gal(b1-4)Glc
# Method in brief: as §1
# [41] = biological target: Gal(a1-4)Gal(b1-4)GlcNAc
# Method in brief: as §1
# [42] = biological target: Gal(a1-4)Gal(b1-4)GlcNAc(b1-2)Man(a1-3)[Gal(a1-4)Gal(b1-4)GlcNAc(b1-2)Man(a1-6)]Man(b1-4)GlcNAc(b1-4)GlcNAc
# Method in brief: as §1
# [43] = biological target: Gal(a1-4)Gal(b1-4)GlcNAc(b1-3)Gal(b1-4)Glc
# Method in brief: as §1
# [44] = biological target: Gal(a1-4)GlcNAc
# Method in brief: as §1
# [45] = biological target: Gal(a1-6)Glc
# Method in brief: as §1
binder,measurement,setting,value
EULS2 M4 (Oryza sativa) (protein) MVYCRANPNYAMTARNGAVVLAPANPKDEYQHWIKDMRWSTSIKDEEGYPAFALVNKATGQAIKHSLGQSHPVRLVPYNPEVMDESVLWTESRDVGNGFRCIRMVNNIYLNFDAFHGDKYHGGVRDGTDIVLWKWCEGDSLRWKIQPYYILEQKLISEEDLNSAVDHHHHHH,glycan array binding signal (z-score),[1],0.165
same,glycan array binding signal (z-score),[2],-0.327
same,glycan array binding signal (z-score),[3],-0.333
same,glycan array binding signal (z-score),[4],0.228
same,glycan array binding signal (z-score),[5],-0.194
same,glycan array binding signal (z-score),[6],-0.788
same,glycan array binding signal (z-score),[7],-0.522
same,glycan array binding signal (z-score),[8],-0.226
same,glycan array binding signal (z-score),[9],-0.459
same,glycan array binding signal (z-score),[10],-0.275
same,glycan array binding signal (z-score),[11],-0.02
same,glycan array binding signal (z-score),[12],-0.55
same,glycan array binding signal (z-score),[13],-0.424
same,glycan array binding signal (z-score),[14],0.66
same,glycan array binding signal (z-score),[15],-0.358
same,glycan array binding signal (z-score),[16],-0.356
same,glycan array binding signal (z-score),[17],-0.362
same,glycan array binding signal (z-score),[18],-0.374
same,glycan array binding signal (z-score),[19],2.03
same,glycan array binding signal (z-score),[20],-0.573
same,glycan array binding signal (z-score),[21],0.013
same,glycan array binding signal (z-score),[22],-0.125
same,glycan array binding signal (z-score),[23],0.88
same,glycan array binding signal (z-score),[24],-0.616
same,glycan array binding signal (z-score),[25],0.027
same,glycan array binding signal (z-score),[26],-0.22
same,glycan array binding signal (z-score),[27],-0.104
same,glycan array binding signal (z-score),[28],-0.462
same,glycan array binding signal (z-score),[29],-0.492
same,glycan array binding signal (z-score),[30],-0.248
same,glycan array binding signal (z-score),[31],-0.464
same,glycan array binding signal (z-score),[32],-0.327
same,glycan array binding signal (z-score),[33],-0.395
same,glycan array binding signal (z-score),[34],0.31
same,glycan array binding signal (z-score),[35],0.531
same,glycan array binding signal (z-score),[36],-0.609
same,glycan array binding signal (z-score),[37],0.366
same,glycan array binding signal (z-score),[38],7
same,glycan array binding signal (z-score),[39],-0.321
same,glycan array binding signal (z-score),[40],-0.542
same,glycan array binding signal (z-score),[41],-0.352
same,glycan array binding signal (z-score),[42],0.456
same,glycan array binding signal (z-score),[43],-0.452
same,glycan array binding signal (z-score),[44],-0.293
same,glycan array binding signal (z-score),[45],0.151
